Laboratory results published in the supplement of paper PMC8728848.
Some of the results follow.

How the values were obtained:
Assay in all cases: glycan array binding signal (z-score within array); higher = stronger binding
Settings in all cases: glycan notation: IUPAC condensed, linker removed
[1] = target: Fuc(a1-3)GlcNAc
Procedure, shortened: (§1)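 The binding signal is a Z-score computed within each array and averaged over linkers. Arrays of the same protein sequence at different concentrations or buffers were also averaged together. Data originate from 3228 arrays in the Consortium for Functional Glycomics database, kept only where the protein sequence was available.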

[2] = target: Fuc(a1-3)[Gal(b1-4)]Glc6S
Procedure, shortened: as §1

[3] = target: Fuc(a1-3)[Gal(b1-4)]GlcNAc
Procedure, shortened: as §1

[4] = target: Fuc(a1-3)[Gal(b1-4)]GlcNAc(b1-2)Man
Procedure, shortened: as §1

[5] = target: Fuc(a1-3)[Gal(b1-4)]GlcNAc(b1-2)Man(a1-3)[Fuc(a1-3)[Gal(b1-4)]GlcNAc(b1-2)Man(a1-6)]Man(b1-4)GlcNAc(b1-4)GlcNAc
Procedure, shortened: as §1

[6] = target: Fuc(a1-3)[Gal(b1-4)]GlcNAc(b1-2)Man(a1-3)[Fuc(a1-3)[Gal(b1-4)]GlcNAc(b1-2)Man(a1-6)]Man(b1-4)GlcNAc(b1-4)[Fuc(a1-6)]GlcNAc
Procedure, shortened: as §1

[7] = target: Fuc(a1-3)[Gal(b1-4)]GlcNAc(b1-3)Gal(b1-3)[Fuc(a1-4)]GlcNAc
Procedure, shortened: as §1

[8] = target: Fuc(a1-3)[Gal(b1-4)]GlcNAc(b1-3)Gal(b1-4)[Fuc(a1-3)]GlcNAc
Procedure, shortened: as §1

[9] = target: Fuc(a1-3)[Gal(b1-4)]GlcNAc(b1-3)Gal(b1-4)[Fuc(a1-3)]GlcNAc(b1-3)Gal(b1-4)[Fuc(a1-3)]GlcNAc
Procedure, shortened: as §1

[10] = target: Fuc(a1-3)[Gal(b1-4)]GlcNAc(b1-3)GalNAc
Procedure, shortened: as §1

[11] = target: Fuc(a1-3)[Gal(b1-4)]GlcNAc(b1-6)GalNAc
Procedure, shortened: as §1

[12] = target: Fuc(a1-3)[Gal(b1-4)]GlcNAc(b1-6)[Gal(b1-3)GlcNAc(b1-3)]Gal(b1-4)Glc
Procedure, shortened: as §1

[13] = target: Fuc(a1-3)[Gal(b1-4)]GlcNAc6S
Procedure, shortened: as §1

[14] = target: Fuc(a1-3)[Gal3S(b1-4)]Glc
Procedure, shortened: as §1

[15] = target: Fuc(a1-3)[Gal3S(b1-4)]GlcNAc
Procedure, shortened: as §1

[16] = target: Fuc(a1-3)[Gal3S(b1-4)]GlcNAc6S
Procedure, shortened: as §1

[17] = target: Fuc(a1-3)[GalNAc(b1-4)]GlcNAc
Procedure, shortened: as §1

[18] = target: Fuc(a1-3)[GalNAc(b1-4)]GlcNAc6S
Procedure, shortened: as §1

[19] = target: Fuc(a1-4)GlcNAc
Procedure, shortened: as §1

[20] = target: Fuc(b1-3)GlcNAc
Procedure, shortened: as §1

[21] = target: Gal(a1-2)Gal
Procedure, shortened: as §1

[22] = target: Gal(a1-3)Gal
Procedure, shortened: as §1

[23] = target: Gal(a1-3)Gal(b1-3)GlcNAc
Procedure, shortened: as §1

[24] = target: Gal(a1-3)Gal(b1-3)GlcNAc(b1-2)Man
Procedure, shortened: as §1

[25] = target: Gal(a1-3)Gal(b1-3)GlcNAc(b1-2)Man(a1-3)[Gal(a1-3)Gal(b1-3)GlcNAc(b1-2)Man(a1-6)]Man(b1-4)GlcNAc(b1-4)GlcNAc
Procedure, shortened: as §1

[26] = target: Gal(a1-3)Gal(b1-3)GlcNAc(b1-3)GalNAc
Procedure, shortened: as §1

[27] = target: Gal(a1-3)Gal(b1-3)GlcNAc(b1-6)GalNAc
Procedure, shortened: as §1

[28] = target: Gal(a1-3)Gal(b1-3)[Fuc(a1-4)]GlcNAc(b1-2)Man(a1-3)[Gal(a1-3)Gal(b1-3)[Fuc(a1-4)]GlcNAc(b1-2)Man(a1-6)]Man(b1-4)GlcNAc(b1-4)GlcNAc
Procedure, shortened: as §1

[29] = target: Gal(a1-3)Gal(b1-4)Glc
Procedure, shortened: as §1

[30] = target: Gal(a1-3)Gal(b1-4)GlcNAc
Procedure, shortened: as §1

[31] = target: Gal(a1-3)Gal(b1-4)GlcNAc(b1-2)Man
Procedure, shortened: as §1

[32] = target: Gal(a1-3)Gal(b1-4)GlcNAc(b1-2)Man(a1-3)[Gal(a1-3)Gal(b1-4)GlcNAc(b1-2)Man(a1-6)]Man(b1-4)GlcNAc(b1-4)GlcNAc
Procedure, shortened: as §1

[33] = target: Gal(a1-3)Gal(b1-4)GlcNAc(b1-3)GalNAc
Procedure, shortened: as §1

[34] = target: Gal(a1-3)Gal(b1-4)GlcNAc(b1-6)GalNAc
Procedure, shortened: as §1

[35] = target: Gal(a1-3)Gal(b1-4)[Fuc(a1-3)]GlcNAc
Procedure, shortened: as §1

[36] = target: Gal(a1-3)Gal(b1-4)[Fuc(a1-3)]GlcNAc(b1-2)Man(a1-3)[Gal(a1-3)Gal(b1-4)[Fuc(a1-3)]GlcNAc(b1-2)Man(a1-6)]Man(b1-4)GlcNAc(b1-4)GlcNAc
Procedure, shortened: as §1

[37] = target: Gal(a1-3)GalNAc
Procedure, shortened: as §1

B1: OGAA (protein)
chain: MVQKESQATLEERESELSSNPAASAGASLEPPAAPAPGEDNPAGAGGAAVAGAAGGARRFLCGVVEGFYGRPWVMEQRKELFRRLQKWELNTYLYAPKDDYKHRMFWREMYSVEEAEQLMTLISAAREYEIEFIYAISPGLDITFSNPKEVSTLKRKLDQVSQFGCRSFALLFADIDHNMCAADKEVFSSFAHAQVSITNEIYQYLGEPETFLFCPTEYCGTFCYPNVSQSPYLRTVGEKLLPGIEVLWTGPKVVSKEIPVESIEEVSKIIKRAPVIWDNIHANDYDQKRLFLGPYKGRSTELIPRLKGVLTNPNCEFEANYVAIHTLATWYKSNMNGVRKDVVMTDSEDSTVSIQIKLENEGSDEDIETDVLYSPQMALKLALTEWLQEFGVPHQY
[1]
  glycan array binding signal (z-score): -0.07
[2]
  glycan array binding signal (z-score): -0.09
[3]
  glycan array binding signal (z-score): -0.025
[4]
  glycan array binding signal (z-score): -0.025
[5]
  glycan array binding signal (z-score): -0.086
[6]
  glycan array binding signal (z-score): 0.034
[7]
  glycan array binding signal (z-score): -0.011
[8]
  glycan array binding signal (z-score): 0.1
[9]
  glycan array binding signal (z-score): -0.104
[10]
  glycan array binding signal (z-score): -0.113
[11]
  glycan array binding signal (z-score): 0.242
[12]
  glycan array binding signal (z-score): -0.127
[13]
  glycan array binding signal (z-score): -0.107
[14]
  glycan array binding signal (z-score): -0.02
[15]
  glycan array binding signal (z-score): -0.012
[16]
  glycan array binding signal (z-score): 0.008
[17]
  glycan array binding signal (z-score): -0.062
[18]
  glycan array binding signal (z-score): -0.107
[19]
  glycan array binding signal (z-score): -0.06
[20]
  glycan array binding signal (z-score): -0.13
[21]
  glycan array binding signal (z-score): 0.002
[22]
  glycan array binding signal (z-score): -0.053
[23]
  glycan array binding signal (z-score): -0.053
[24]
  glycan array binding signal (z-score): -0.106
[25]
  glycan array binding signal (z-score): 0.031
[26]
  glycan array binding signal (z-score): -0.057
[27]
  glycan array binding signal (z-score): -0.107
[28]
  glycan array binding signal (z-score): 0.142
[29]
  glycan array binding signal (z-score): -0.092
[30]
  glycan array binding signal (z-score): 0.005
[31]
  glycan array binding signal (z-score): 0.001
[32]
  glycan array binding signal (z-score): -0.028
[33]
  glycan array binding signal (z-score): -0.078
[34]
  glycan array binding signal (z-score): -0.074
[35]
  glycan array binding signal (z-score): -0.043
[36]
  glycan array binding signal (z-score): 0.644
[37]
  glycan array binding signal (z-score): -0.094
